Assay results reported in patent US20240108766A1 (Bayer, published 2024).

T1: human LRRC15 expressed on cells (human, UniProt Q8TF66 22-581)
T1 sequence (looked up): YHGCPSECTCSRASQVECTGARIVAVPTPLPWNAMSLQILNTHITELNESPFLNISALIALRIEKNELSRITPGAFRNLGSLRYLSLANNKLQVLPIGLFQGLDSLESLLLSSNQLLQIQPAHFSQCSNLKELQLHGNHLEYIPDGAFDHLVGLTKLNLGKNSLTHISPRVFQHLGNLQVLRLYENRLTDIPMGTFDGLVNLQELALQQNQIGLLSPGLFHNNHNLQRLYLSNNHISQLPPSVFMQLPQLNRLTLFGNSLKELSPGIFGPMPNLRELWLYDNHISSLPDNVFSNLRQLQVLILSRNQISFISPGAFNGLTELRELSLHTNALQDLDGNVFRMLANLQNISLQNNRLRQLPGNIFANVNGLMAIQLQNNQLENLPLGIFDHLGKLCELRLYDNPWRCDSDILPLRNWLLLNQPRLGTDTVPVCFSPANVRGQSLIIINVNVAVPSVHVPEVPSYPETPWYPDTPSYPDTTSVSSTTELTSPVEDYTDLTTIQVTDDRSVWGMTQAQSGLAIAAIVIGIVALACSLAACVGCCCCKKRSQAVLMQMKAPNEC

B1: LRRC15-TTC (TPP-14389) (other)
heavy: EVQLLESGGGLVQPGGSLRLSCAASGFTFSGYMMSWVRQAPGKGLEWVSGIYPSPGYTYYADSVKGRFTISRDNSKNTLYLQMNSLRAEDTAVYYCAREKASDLFGSYSEALDYWGQGTLVTVSS[human IgG1 constant region omitted]
light: DIQMTQSPDSLSASVGDRVTITCRASQDVGSWLAWYQQKPGKAPKLLIFAASSLESGIPSRFSGSGSGTDFTLTISSLQPEDFATYYCQQANGFPLTFGGGTKVEIKRTVAAPSVFIFPPSDEQLKSGTASVVCLLNNFYPREAKVQWKVDNALQSGNSQESVTEQDSKDSTYSLSSTLTLSKADYEKHKVYACEVTHQGLSSPVTKSFNRGEC
modifications: as for the heavy chain; sites not stated; 3,2-HOPO chelator coupled by amide bonds (NHS/EDC; lysine ε-amino groups), complexed with thorium-227; sites not stated
B2: LRRC15-TTC (TPP-12942) (other)
heavy: EVQLVQSGAEVKKPGASVKVSCKASGYKFSSYWIEWVKQAPGQGLEWIGEILPGSDTTNYNEKFKDRATFTSDTSINTAYMELSRLRSDDTAVYYCARDRGNYRAWFGYWGQGTLVTVSS[human IgG1 constant region omitted]
light: DIQMTQSPSSLSASVGDRVTITCRASQDISNYLNWYQQKPGGAVKFLIYYTSRLHSGVPSRFSGSGSGTDYTLTISSLQPEDFATYFCQQGEALPWTFGGGTKVEIKRTVAAPSVFIFPPSDEQLKSGTASVVCLLNNFYPREAKVQWKVDNALQSGNSQESVTEQDSKDSTYSLSSTLTLSKADYEKHKVYACEVTHQGLSSPVTKSFNRGEC
modifications: as for the heavy chain; sites not stated; 3,2-HOPO chelator coupled by amide bonds (NHS/EDC; lysine ε-amino groups), complexed with thorium-227; sites not stated

Target: T1, human LRRC15 expressed on cells
Test: cell-based or functional assay

Binder	IC50 (kBq/ml), cell viability, Cell Titer Glo, HT29-LRRC15 [kBq/ml]	IC50 (kBq/ml), cell viability, Cell Titer Glo, Saos-2 [kBq/ml]
B1	0.09	0.33
B2	0.08	0.35
